Source: the supplement of paper PMC12217912
This is one part of the list. The full chains were built here from the parent and the listed change. Inactive controls read about 0.05.

B1: TEV protease; numbered along this chain (parent)
chain: MGESLFKGPRDYNPISSSICHLTNESDGHTTSLYGIGFGPFIITNKHLFRRNNGTLVVQSLHGVFKVKDTTTLQQHLVDGRDMIIIRMPKDFPPFPQKLKFREPQREERICLVTTNFQTKSMSSMVSDTSCTFPSGDGIFWKHWIQTKDGQCGSPLVSTRDGFIVGIHSASNFTNTNNYFTSVPKNFMELLTNQEAQQWVSGWRLNADSVLWGGHKVFMVKPEEPFQPVKEATQL

Variants of: B1
Assay: raw area under fraction-flipped curve 0-4 h after induction (AUC4h, not background-subtracted), DNA-recorder readout of cleavage of the substrate (dimensionless); higher = more cleavage of the substrate by the protease variant
Conditions: temperature: 34 °C; time window: 0-4 h after rhamnose induction
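Note: Bxb1 expression induced with 0.2% (w/v) L-rhamnose at OD600 near 0.5, cultures sampled hourly, flipped fraction per protease–substrate barcode pair counted by paired-end Illumina sequencing.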

Variant | area with substrate ENLYGQS | area with substrate ENLYHQS | area with substrate ENLYIQS | area with substrate ENLYMQS | area with substrate ENLYRQS | area with substrate ENLYSQS | area with substrate ENLYVQS | area with substrate ENLYQQS | area with substrate ENLYWQS | area with substrate ENLYKQS
MGESLFKGPRDYNPISSSICHLTNESDGHTTSLYGIGFGPFIITNKHLFRRNNGTLVVQSLHGVFKVKDTTTLQQHLVDGRDMIIIRMPKDFPPFPQKLKFREPQREERICLVTTNFQTKSMSSMVSDTSPTFPSGDGIFWKHWIQTKDGQCGSPLVSTRDGFIVGIHSASNFTNTNNYFTSVPKNFMELLTNQEAQQWVSGWRLNADSVLWGGHKVFMVKPEEPFQPVKEATQL [C131P] | 0.0541 | 0.0649 | 0.116 | 0.0734 | 0.0552 | 0.0686 | 0.135 | – | – | –
MGESLFKGPRDYNPISSSICHLTNESDGHTTSLYGIGFGPFIITNKHLFRRNNGTLVVQSLHGVFKVKDTTTLQQHLVDGRDMIIIRMPKDFPPFPQKLKFREPQREERICLVTTNFQTKSMSSMVSDTSCTFPSGDAIFWKHWIQTKDGQCGSPLVSTRDGFIVGIHSASNFTNTNNYFTSVPKNFMELLTNQEAQQWVSGWRLNADSVLWGGHKVFMVKPEEPFQPVKEATQL [G138A] | 0.0645 | – | – | – | – | – | – | 0.0645 | – | –
MGESLFKGPRDYNPISSSICHLTNESDGHTTSLYGIGFGPFIITNKHLFRRNNGTLVVQSLHGVFKVKDTTTLQQHLVDGRDMIIIRMPKDFPPFPQKLKFREPQREERICLVTTNFQTKSMSSMVSDTSCTFPSGDFIFWKHWIQTKDGQCGSPLVSTRDGFIVGIHSASNFTNTNNYFTSVPKNFMELLTNQEAQQWVSGWRLNADSVLWGGHKVFMVKPEEPFQPVKEATQL [G138F] | 0.0528 | – | – | – | – | – | – | – | – | –
MGESLFKGPRDYNPISSSICHLTNESDGHTTSLYGIGFGPFIITNKHLFRRNNGTLVVQSLHGVFKVKDTTTLQQHLVDGRDMIIIRMPKDFPPFPQKLKFREPQREERICLVTTNFQTKSMSSMVSDTSCTFPSGDLIFWKHWIQTKDGQCGSPLVSTRDGFIVGIHSASNFTNTNNYFTSVPKNFMELLTNQEAQQWVSGWRLNADSVLWGGHKVFMVKPEEPFQPVKEATQL [G138L] | 0.0741 | – | 0.093 | 0.0653 | – | – | 0.122 | – | 0.0615 | –
MGESLFKGPRDYNPISSSICHLTNESDGHTTSLYGIGFGPFIITNKHLFRRNNGTLVVQSLHGVFKVKDTTTLQQHLVDGRDMIIIRMPKDFPPFPQKLKFREPQREERICLVTTNFQTKSMSSMVSDTSCTFPSGDGIFWKHWNQTKDGQCGSPLVSTRDGFIVGIHSASNFTNTNNYFTSVPKNFMELLTNQEAQQWVSGWRLNADSVLWGGHKVFMVKPEEPFQPVKEATQL [I145N] | 0.0437 | – | – | – | – | – | 0.142 | 0.0609 | 0.0591 | –
MGESLFKGPRDYNPISSSICHLTNESDGHTTSLYGIGFGPFIITNKHLFRRNNGTLVVQSLHGVFKVKDTTTLQQHLVDGRDMIIIRMPKDFPPFPQKLKFREPQREERICLVTTNFQTKSMSSMVSDTSCTFPSGDGIFWKHWIQVKDGQCGSPLVSTRDGFIVGIHSASNFTNTNNYFTSVPKNFMELLTNQEAQQWVSGWRLNADSVLWGGHKVFMVKPEEPFQPVKEATQL [T147V] | 0.0679 | 0.0613 | – | – | – | – | 0.0725 | – | – | 0.0217
MGESLFKGPRDYNPISSSICHLTNESDGHTTSLYGIGFGPFIITNKHLFRRNNGTLVVQSLHGVFKVKDTTTLQQHLVDGRDMIIIRMPKDFPPFPQKLKFREPQREERICLVTTNFQTKSMSSMVSDTSCTFPSGDGIFWKHWIQTLDGQCGSPLVSTRDGFIVGIHSASNFTNTNNYFTSVPKNFMELLTNQEAQQWVSGWRLNADSVLWGGHKVFMVKPEEPFQPVKEATQL [K148L] | 0.0526 | 0.0741 | 0.129 | 0.0852 | – | – | 0.114 | 0.0747 | 0.0992 | 0.0831
MGESLFKGPRDYNPISSSICHLTNESDGHTTSLYGIGFGPFIITNKHLFRRNNGTLVVQSLHGVFKVKDTTTLQQHLVDGRDMIIIRMPKDFPPFPQKLKFREPQREERICLVTTNFQTKSMSSMVSDTSCTFPSGDGIFWKHWIQTKDGQCGDPLVSTRDGFIVGIHSASNFTNTNNYFTSVPKNFMELLTNQEAQQWVSGWRLNADSVLWGGHKVFMVKPEEPFQPVKEATQL [S154D] | 0.0492 | 0.0467 | 0.0691 | – | 0.0504 | – | – | – | 0.0437 | –
MGESLFKGPRDYNPISSSICHLTNESDGHTTSLYGIGFGPFIITNKHLFRRNNGTLVVQSLHGVFKVKDTTTLQQHLVDGRDMIIIRMPKDFPPFPQKLKFREPQREERICLVTTNFQTKSMSSMVSDTSCTFPSGDGIFWKHWIQTKDGQCGSPLVSTRDGFIVGIHSQSNFTNTNNYFTSVPKNFMELLTNQEAQQWVSGWRLNADSVLWGGHKVFMVKPEEPFQPVKEATQL [A170Q] | 0.0478 | – | 0.0613 | – | – | – | – | – | – | –
MGESLFKGPRDYNPISSSICHLTNESDGHTTSLYGIGFGPFIITNKHLFRRNNGTLVVQSLHGVFKVKDTTTLQQHLVDGRDMIIIRMPKDFPPFPQKLKFREPQREERICLVTTNFQTKSMSSMVSDTSCTFPSGDGIFWKHWIQTKDGQCGSPLVSTRDGFIVGIHSAINFTNTNNYFTSVPKNFMELLTNQEAQQWVSGWRLNADSVLWGGHKVFMVKPEEPFQPVKEATQL [S171I] | 0.062 | – | – | – | – | – | – | – | – | –
MGESLFKGPRDYNPISSSICHLTNESDGHTTSLYGIGFGPFIITNKHLFRRNNGTLVVQSLHGVFKVKDTTTLQQHLVDGRDMIIIRMPKDFPPFPQKLKFREPQREERICLVTTNFQTKSMSSMVSDTSCTFPSGDGIFWKHWIQTKDGQCGSPLVSTRDGFIVGIHSASAFTNTNNYFTSVPKNFMELLTNQEAQQWVSGWRLNADSVLWGGHKVFMVKPEEPFQPVKEATQL [N172A] | 0.0564 | 0.0663 | 0.0667 | – | – | – | – | – | – | –

Same assay, conditions: temperature: 34 °C; time window: 0-4 h after rhamnose induction

Variant | area with substrate ENLYNQS | area with substrate ENLYPQS | area with substrate ENLYTQS | area with substrate ENLYYQS | area with substrate ENLYLQS
MGESLFKGPRDYNPISSSICHLTNESDGHTTSLYGIGFGPFIITNKHLFRRNNGTLVVQSLHGVFKVKDTTTLQQHLVDGRDMIIIRMPKDFPPFPQKLKFREPQREERICLVTTNFQTKSMSSMVSDTSCTFPSGDGIFWKHWIQVKDGQCGSPLVSTRDGFIVGIHSASNFTNTNNYFTSVPKNFMELLTNQEAQQWVSGWRLNADSVLWGGHKVFMVKPEEPFQPVKEATQL [T147V] | 0.0602 | 0.0658 | 0.0681 | – | –
MGESLFKGPRDYNPISSSICHLTNESDGHTTSLYGIGFGPFIITNKHLFRRNNGTLVVQSLHGVFKVKDTTTLQQHLVDGRDMIIIRMPKDFPPFPQKLKFREPQREERICLVTTNFQTKSMSSMVSDTSCTFPSGDGIFWKHWIQTLDGQCGSPLVSTRDGFIVGIHSASNFTNTNNYFTSVPKNFMELLTNQEAQQWVSGWRLNADSVLWGGHKVFMVKPEEPFQPVKEATQL [K148L] | 0.063 | 0.0768 | 0.0868 | 0.041 | –
MGESLFKGPRDYNPISSSICHLTNESDGHTTSLYGIGFGPFIITNKHLFRRNNGTLVVQSLHGVFKVKDTTTLQQHLVDGRDMIIIRMPKDFPPFPQKLKFREPQREERICLVTTNFQTKSMSSMVSDTSCTFPSGDGIFWKHWIQTKDGQCGDPLVSTRDGFIVGIHSASNFTNTNNYFTSVPKNFMELLTNQEAQQWVSGWRLNADSVLWGGHKVFMVKPEEPFQPVKEATQL [S154D] | – | – | – | 0.0552 | 0.0812
MGESLFKGPRDYNPISSSICHLTNESDGHTTSLYGIGFGPFIITNKHLFRRNNGTLVVQSLHGVFKVKDTTTLQQHLVDGRDMIIIRMPKDFPPFPQKLKFREPQREERICLVTTNFQTKSMSSMVSDTSCTFPSGDGIFWKHWIQTKDGQCGSPLVSTRDGFIVGIHSQSNFTNTNNYFTSVPKNFMELLTNQEAQQWVSGWRLNADSVLWGGHKVFMVKPEEPFQPVKEATQL [A170Q] | – | 0.0421 | – | – | –
MGESLFKGPRDYNPISSSICHLTNESDGHTTSLYGIGFGPFIITNKHLFRRNNGTLVVQSLHGVFKVKDTTTLQQHLVDGRDMIIIRMPKDFPPFPQKLKFREPQREERICLVTTNFQTKSMSSMVSDTSCTFPSGDGIFWKHWIQTKDGQCGSPLVSTRDGFIVGIHSAINFTNTNNYFTSVPKNFMELLTNQEAQQWVSGWRLNADSVLWGGHKVFMVKPEEPFQPVKEATQL [S171I] | 0.0637 | 0.0682 | – | – | –
MGESLFKGPRDYNPISSSICHLTNESDGHTTSLYGIGFGPFIITNKHLFRRNNGTLVVQSLHGVFKVKDTTTLQQHLVDGRDMIIIRMPKDFPPFPQKLKFREPQREERICLVTTNFQTKSMSSMVSDTSCTFPSGDGIFWKHWIQTKDGQCGSPLVSTRDGFIVGIHSASAFTNTNNYFTSVPKNFMELLTNQEAQQWVSGWRLNADSVLWGGHKVFMVKPEEPFQPVKEATQL [N172A] | 0.0605 | – | – | 0.0452 | –
